Consider 18 molecules from the supplement of paper PMC10369915.

Sequences and labels used below:
B1: KLB_Y910 (peptide)
chain: YYLGKYLQEVL
B2: KDR_Y357_A352V (peptide)
chain: VKYLGYPPPEI
B3: KDR_Y951 (peptide)
chain: RQGKDYVGAIP
B4: KCNT1_Y876_M877I (peptide)
chain: SAEEDYIADAK
B5: KCNH2_Y611_YF (peptide)
chain: SIKDKYVTALF
B6: KNL1_Y489_YF (peptide)
chain: NFAKMYCNPDA
B7: KIR3DL2_Y398 (peptide)
chain: PQEVTYAQLDH
B8: KDR_Y357 (peptide)
chain: AKYLGYPPPEI
B9: KCNT1_Y563_T562I (peptide)
chain: GKSFIYAAFHA
B10: KLB_Y910_Y906H (peptide)
chain: YHLGKYLQEVL
B11: KDM4B_Y34_YF (peptide)
chain: NKFVAYIESQG
B12: JUP_Y644_V648I (peptide)
chain: EGTATYAAAIL
B13: KPNA1_Y493 (peptide)
chain: ENQEIYQKAFD
B14: KIF4B_Y684_R680H (peptide)
chain: DHKRQYELLKL
B15: JUP_Y22_T19I (peptide)
chain: QQIYTYDSGIH
B16: KCNH2_Y611_D609H_YF (peptide)
chain: SIKHKYVTALF
B17: JUP_Y644 (peptide)
chain: EGTATYAAAVL
B18: KIR3DL2_Y253_I252T (peptide)
chain: SSYDTYHLSRE

The list shows a part of the results. Rule as the data show it: active = 3.2 or more and inactive = the rest. Most of these values are background signal.
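Also: displayed peptides selected on beads carrying the immobilized SH2 domain, with library peptides lacking any tyrosine serving as negative controls.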

The first assay addresses SHP2 C-SH2 domain E139D. Put plainly: enrichment score (SH2-bound / input frequency) (ratio); bacterial display of known human phosphotyrosine sites (pTyr-Var adds point mutants) read by sequencing; higher = stronger binding; tyrosines were phosphorylated by kinases first. Particulars: peptide library: pTyr-Var.
Turning to B1, the enrichment score is inactive: 1.4.

With B2, the enrichment score is inactive: 0.784.

With B3, the enrichment score is inactive: 0.652.

In the case of B4, the enrichment score was inactive: 0.618.

With B5, the enrichment score is inactive: 0.841.

For B6, the enrichment score is inactive: 0.518.

B7: the enrichment score is inactive: 1.67.

B8: the enrichment score is inactive: 0.828.

On to B9, for which the enrichment score was inactive: 2.1.

In the case of B10, the enrichment score is inactive: 0.919.

For B11, the enrichment score was inactive: 1.08.

For B12, the enrichment score was inactive: 0.639.

Consider B13, for which the enrichment score was inactive: 0.604.

For B14, the enrichment score is inactive: 1.13.

On to B15, for which the enrichment score is inactive: 1.04.

As to B16, the enrichment score was inactive: 0.822.

As for B17, the enrichment score was inactive: 0.529.

B18: the enrichment score is inactive: 0.557.

For the next assay, the target named is SHP2 C-SH2 domain wild-type. The assay is described as above. Particulars: peptide library: pTyr-Var.
Regarding B1, the enrichment score is inactive: 1.51.

As to B2, the enrichment score was inactive: 1.35.

With B3, the enrichment score was inactive: 0.668.

Turning to B4, the enrichment score is inactive: 0.62.

In the case of B5, the enrichment score is inactive: 0.85.

For B6, the enrichment score is inactive: 0.596.

With B7, the enrichment score was active: 3.25.

Regarding B8, the enrichment score is inactive: 0.972.

As for B9, the enrichment score is inactive: 2.47.

Turning to B10, the enrichment score is inactive: 1.03.

Take B11: the enrichment score is inactive: 0.944.

Regarding B12, the enrichment score was inactive: 0.742.

Turning to B13, the enrichment score is inactive: 0.581.

With B14, the enrichment score was inactive: 0.741.

For B15, the enrichment score is inactive: 0.94.

For the molecule B16, the enrichment score was inactive: 0.704.

On to B17, for which the enrichment score is inactive: 0.534.

Take B18: the enrichment score is inactive: 0.442.

The target of another assay is SHP2 N-SH2 domain L43F. Described as above. Particulars: peptide library: pTyr-Var.
For B1, the enrichment score is inactive: 1.49.

In the case of B2, the enrichment score is inactive: 0.831.

Turning to B3, the enrichment score is inactive: 0.691.

As to B4, the enrichment score is inactive: 0.428.

As to B5, the enrichment score is inactive: 1.71.

In the case of B6, the enrichment score is inactive: 0.459.

For the molecule B7, the enrichment score was active: 8.1.

For B8, the enrichment score was inactive: 0.791.

Consider B9, for which the enrichment score was inactive: 2.25.

For B10, the enrichment score is inactive: 0.83.

Take B11: the enrichment score is inactive: 0.949.

Take B12: the enrichment score is inactive: 0.445.

Turning to B13, the enrichment score was inactive: 0.738.

On to B14, for which the enrichment score is inactive: 0.815.

Consider B15, for which the enrichment score is inactive: 0.869.

For the molecule B16, the enrichment score was inactive: 0.89.

B17: the enrichment score was inactive: 0.524.

For the molecule B18, the enrichment score was inactive: 0.528.

A further assay addresses SHP2 N-SH2 domain T42A. The assay is described as above. The settings on record: peptide library: pTyr-Var.
Regarding B1, the enrichment score was inactive: 1.42.

Turning to B2, the enrichment score is inactive: 2.76.

Turning to B3, the enrichment score was inactive: 0.481.

As for B4, the enrichment score is inactive: 0.51.

As to B5, the enrichment score was inactive: 1.22.

Take B6: the enrichment score was inactive: 0.637.

As for B7, the enrichment score is active: 10.4.

As to B8, the enrichment score is inactive: 0.717.

Take B9: the enrichment score was inactive: 1.89.

For B10, the enrichment score was inactive: 0.692.

As for B11, the enrichment score is inactive: 0.971.

For the molecule B12, the enrichment score is inactive: 0.67.

Regarding B13, the enrichment score was inactive: 0.637.

As to B14, the enrichment score was inactive: 0.696.

On to B15, for which the enrichment score is inactive: 1.02.

For B16, the enrichment score is inactive: 0.837.

B17: the enrichment score was inactive: 0.87.

B18: the enrichment score is inactive: 0.453.

The next assay addresses SHP2 N-SH2 domain T52S. The description is as above. The settings on record: peptide library: pTyr-Var.
B1: the enrichment score was inactive: 1.37.

B2: the enrichment score was inactive: 0.987.

With B3, the enrichment score was inactive: 0.617.

B4: the enrichment score is inactive: 0.664.

In the case of B5, the enrichment score was inactive: 2.24.

Take B6: the enrichment score was inactive: 0.577.

Regarding B7, the enrichment score is active: 6.9.

Regarding B8, the enrichment score was inactive: 1.1.

For the molecule B9, the enrichment score was inactive: 2.29.

Regarding B10, the enrichment score was inactive: 0.946.

On to B11, for which the enrichment score is inactive: 0.973.

In the case of B12, the enrichment score is inactive: 0.53.

With B13, the enrichment score was inactive: 0.616.

Regarding B14, the enrichment score was inactive: 1.

Take B15: the enrichment score was inactive: 0.836.

With B16, the enrichment score was inactive: 0.86.

B17: the enrichment score is inactive: 0.526.

As for B18, the enrichment score was inactive: 0.5.

Another assay deals with SHP2 N-SH2 domain wild-type. Described as above. The settings on record: peptide library: pTyr-Var.
With B1, the enrichment score was inactive: 1.36.

As to B2, the enrichment score is inactive: 0.846.

On to B3, for which the enrichment score was inactive: 0.728.

B4: the enrichment score is inactive: 0.625.

Regarding B5, the enrichment score is inactive: 0.993.

With B6, the enrichment score was inactive: 0.582.

As to B7, the enrichment score was active: 4.16.

As to B8, the enrichment score is inactive: 1.19.

Take B9: the enrichment score was inactive: 2.23.

As to B10, the enrichment score is inactive: 0.967.

For the molecule B11, the enrichment score was inactive: 0.998.

For B12, the enrichment score was inactive: 0.722.

Take B13: the enrichment score is inactive: 0.771.

B14: the enrichment score was inactive: 0.886.

Consider B15, for which the enrichment score was inactive: 1.01.

B16: the enrichment score was inactive: 0.915.

In the case of B17, the enrichment score was inactive: 0.667.

For the molecule B18, the enrichment score was inactive: 0.584.
